Data on 43 compounds can be found in ChEMBL document CHEMBL4888484, “Replenishing the malaria drug discovery pipeline: Screening and hit evaluation of the MMV Hit Generation Library 1 (HGL1) against asexual blood stage Plasmodium falciparum ,using a nano luciferase reporter read-out” (2022).

In all, about 150,000 compounds went through this assay and about 540 (0.36%) showed an effect of 50% or more. The list shows a part of the results.

In general, % Inhibition refers to the change of the read-out against control, counted positive when it falls.

The experiment has as its system Plasmodium falciparum. The experiment is described as follows: Primary screen in NF54 nanoGlo assay, in single point, at 2uM, 72h; a lower Z score goes with more inhibition. The format is functional, Erythrocyte. As to conditions: timepoint 72 hour.
On to `COc1cccc([C@H]2CN(C(=O)c3cccnc3O)[C@@H]3C4CCN(CC4)[C@H]23)c1`, for which the “% Inhibition” value is reported as -7% and the Z score came out at 1.06.

For the compound `c1cnc(CN2CCO[C@@]3(CCc4ccccc43)C2)nc1`, the “% Inhibition” value is listed as -10% and the Z score is recorded as 1.14.

Consider `COc1cccc([C@H]2CN(C(=O)c3cccc(O)c3)[C@@H]3C4CCN(CC4)[C@H]23)c1`, for which the “% Inhibition” value is on record as -12% and the Z score came out at 1.61.

For `CN1CC[C@H]2CCN(c3ncccc3Cl)[C@H]2C1`, the “% Inhibition” value is recorded as -5% and the Z score is 0.7.

Take `CCN1CCN(C2CCN(C(C)C(=O)Nc3ccc(C#N)c(Cl)c3)C2)CC1` (stereo unspecified): the “% Inhibition” value is given as -5% and the Z score stood at 0.95.

On to `CN(C)S(=O)(=O)c1cccc2c1CCNC2`, for which the “% Inhibition” value was determined as 3% and the Z score was -0.48.

For `Cc1oncc1C(=O)N1C[C@@H]2CC[C@H]1CN(Cc1cscn1)C2`, the “% Inhibition” value is reported as -7% and the Z score turned out to be 1.12.

For `C=CCNC(=O)c1c(COc2ccc(C)cc2)n(CCN2CCOCC2)c(C)cc1=O`, the “% Inhibition” value was 1% and the Z score was -0.11.

For the compound `CC(C)c1ccccc1CN1CC[C@@]2(O)C[C@H]2C1`, the “% Inhibition” value is given as -16% and the Z score came to 1.44.

For `CC(C)Cn1cc(C(=O)O[C@@H](C)C(N)=O)cn1`, the “% Inhibition” value is given as -16% and the Z score amounted to 3.01.

Consider `COc1ccccc1NC(=O)N1C[C@@H]2C[C@H](C1)c1ccc(C3CCCCC3)c(=O)n1C2`, for which the “% Inhibition” value is -4% and the Z score is on record as 0.68.

As for `COc1cc(=O)n(C)cc1C(=O)N1CCC2(CC1)OCCO2`, the “% Inhibition” value is reported as 5% and the Z score is recorded as -1.01.

For the compound `Cc1nn(C[C@H](C)NCc2nnc(N)s2)c(C)c1Cl`, the “% Inhibition” value is given as -1% and the Z score was found to be 0.16.

`O=C1NCCC[C@@]12CCN(Cc1c(Cl)cncc1Cl)C2`: the “% Inhibition” value is on record as -18% and the Z score is 3.01.

Turning to `COC(CN1CCC2(CCCC2)C1)OC`, the “% Inhibition” value is listed as -3% and the Z score is 0.24.

`CN(C)C(=O)Oc1ccc(OCC#N)cc1`: the “% Inhibition” value is recorded as -7% and the Z score turned out to be 0.77.

`C[C@H](NC(=O)N1CC2CCC1CN2)c1cncc(F)c1` (stereo partly specified): the “% Inhibition” value is -7% and the Z score is 1.31.

Take `O=C(c1ccc(CO)cc1)N1C[C@@H](c2cccc(O)c2)[C@@H]2[C@H]1C1CCN2CC1`: the “% Inhibition” value was -5% and the Z score turned out to be 0.92.

On to `CCOC(=O)Cn1nnnc1C1(N2CCOCC2)CCCCC1`, for which the “% Inhibition” value is on record as -40% and the Z score was found to be 4.68.

As for `CC1CCCC(OC(C)C(=O)Nc2cccc(-c3noc(=O)[nH]3)c2)C1` (stereo unspecified), the “% Inhibition” value worked out at 3% and the Z score is -0.58.

For the compound `C[S+](C)c1c([O-])[nH]c(=O)n(-c2ccccc2)c1=O`, the “% Inhibition” value is given as -6% and the Z score came to 0.77.

As to `CCc1nccn1C[C@H](C)NCCc1scnc1C`, the “% Inhibition” value is listed as -9% and the Z score stood at 1.15.

Take `CC[C@H]1CCCCN1C(=O)c1cn(Cc2cccc(OC)c2)cc(C(=O)NCc2ccc(C)o2)c1=O`: the “% Inhibition” value came to 3% and the Z score is -0.39.

In the case of `O=C(CNc1ccc(Cl)c(F)c1)N1CCC2(CC1)OCCO2`, the “% Inhibition” value came out at 28% and the Z score is -3.19.

On to `Cc1ncsc1C(=O)N[C@H]1COC[C@@H]1N1CCN(C)CC1`, for which the “% Inhibition” value is -6% and the Z score is 0.97.

For the compound `Cc1nccn1CCN1CCN(C(=O)Cc2c[nH]c3ccccc23)CC1`, the “% Inhibition” value is reported as 2% and the Z score is recorded as -0.37.

Regarding `CCCCC1(CCCC)C(=O)NC(=Nc2ccc(C)cc2)NC1=O`, the “% Inhibition” value is listed as 40% and the Z score is -5.1.

Take `O=c1[nH]c2cc(NS(=O)(=O)c3ccc(C4CCCCC4)cc3)ccc2o1`: the “% Inhibition” value is 38% and the Z score was -5.45.

On to `Cc1[nH]c2ccccc2c1C1CCN([C@@H](C)c2nnnn2C)CC1`, for which the “% Inhibition” value is -18% and the Z score stood at 3.01.

For the compound `Cc1nc(CC(=O)N2CCN(Cc3nonc3C)CC2)cs1`, the “% Inhibition” value is recorded as -7% and the Z score stood at 0.68.

Consider `CN(C(=O)c1nn(Cc2ccccc2)c2nccc(-c3cccs3)c12)C1CCCCC1`, for which the “% Inhibition” value is on record as -6% and the Z score is given as 1.01.

Take `CCCCOCC(=O)N1CCCC2CN(C)CCC21` (stereo unspecified): the “% Inhibition” value is -12% and the Z score was 1.21.

Consider `C[C@@H](Cn1cncn1)NCc1cc(F)ccc1Br`, for which the “% Inhibition” value is listed as -8% and the Z score was determined as 0.69.

Consider `O=c1onc(-c2ncccn2)n1Cc1ccc(OCc2ccc(F)cc2)cc1`, for which the “% Inhibition” value is reported as -29% and the Z score is given as 3.35.

`C1CCC(c2nc([C@H]3CCOC3)n[nH]2)(N2CCOCC2)CC1`: the “% Inhibition” value worked out at 15% and the Z score is -1.94.

For `CC(O)CN1CCN(C(=O)Cc2cccc3ccccc23)CC1C` (stereo unspecified), the “% Inhibition” value is on record as 0% and the Z score came out at 0.05.

Regarding `COCCN1C[C@H]2CN(Cc3cccnc3)CCN2C1=O`, the “% Inhibition” value is on record as 16% and the Z score is reported as -1.85.

For the compound `Cc1cccc(C2(C(=O)NCCc3nc(=O)o[nH]3)CCCCC2)c1`, the “% Inhibition” value came out at 0% and the Z score amounted to 0.03.

On to `Cc1[nH]c2ccccc2c1C1CCN(Cc2nnc(C3CC3)o2)CC1`, for which the “% Inhibition” value was 6% and the Z score is on record as -0.81.

For `Cc1ccc([C@@H]2c3cccn3-c3ccccc3CN2C(=O)C2CCCC2)cc1`, the “% Inhibition” value was determined as 1% and the Z score is recorded as -0.14.

Regarding `CC(C)Cc1cc(C(=O)N2C[C@H]3c4ccccc4OC[C@@]3(C(=O)O)C2)[nH]n1`, the “% Inhibition” value was -6% and the Z score amounted to 1.02.

On to `Cc1ccccc1OC1CCN([C@H]2CN(C(=O)Cc3ccsc3)C[C@@H]2O)CC1`, for which the “% Inhibition” value is on record as -18% and the Z score was 1.65.

Take `COc1ccccc1Cn1cc(C(=O)NCCC2=CCCCC2)c(=O)c(C(=O)NCCC(C)C)c1`: the “% Inhibition” value amounted to 5% and the Z score is -0.92.
